Source: EPA's CvTdb concentration-time database
The source gives many values for each of these; only a part stands here.

Assays:
Assay in all cases: concentration in plasma after dosing
Rat [1] = details: dosed: Methyleugenol, 75 mg/kg, oral, Male, F344/N
Rat [2] = details: dosed: Methyleugenol, 75 mg/kg, oral, Male, F344
Rat [3] = details: dosed: Methyleugenol, 150 mg/kg, oral, Female, F344/N
Rat [4] = details: dosed: Methyleugenol, 150 mg/kg, oral, Female, F344
Rat [5] = details: 0.25 h; dosed: Methyleugenol; 37 mg/kg; oral; Male; F344
Rat [6] = details: dosed: Methyleugenol, 150 mg/kg, oral, Female, F344; remark: listed apart in the source
Rat [7] = details: 5 min; dosed: Methyleugenol; 37 mg/kg; oral; Male; F344
Rat [8] = details: dosed: Methyleugenol, 150 mg/kg, oral, Male, F344/N
Rat [9] = details: dosed: Methyleugenol, 75 mg/kg, oral, Male, F344/N; remark: listed apart in the source
Rat [10] = details: dosed: Methyleugenol, 150 mg/kg, oral, Male, F344
Rat [11] = details: 0.25 h; dosed: Methyleugenol; 37 mg/kg; oral; Female; F344
Rat [12] = details: dosed: Methyleugenol, 150 mg/kg, oral, Female, F344/N; remark: listed apart in the source
Rat [13] = details: dosed: Methyleugenol, 150 mg/kg, oral, Female, F344; remark: listed apart in the source
Rat [14] = details: dosed: Methyleugenol, 75 mg/kg, oral, Female, F344
Rat [15] = details: dosed: Methyleugenol, 150 mg/kg, oral, Female, F344/N; remark: listed apart in the source
Rat [16] = details: dosed: Methyleugenol, 150 mg/kg, oral, Female, F344; remark: listed apart in the source
Rat [17] = details: dosed: Methyleugenol, 75 mg/kg, oral, Female, F344/N
Rat [18] = details: 1.5 h; dosed: Methyleugenol; 37 mg/kg; oral; Female; F344/N
Rat [19] = details: dosed: Methyleugenol, 150 mg/kg, oral, Female, F344; remark: listed apart in the source
Rat [20] = details: dosed: Methyleugenol, 75 mg/kg, oral, Male, F344/N; remark: listed apart in the source
Rat [21] = details: dosed: Methyleugenol, 150 mg/kg, oral, Female, F344/N; remark: listed apart in the source
Rat [22] = details: dosed: Methyleugenol, 75 mg/kg, oral, Female, F344/N; remark: listed apart in the source
Rat [23] = details: dosed: Methyleugenol, 150 mg/kg, oral, Male, F344; remark: listed apart in the source

C=CCc1ccc(OC)c(OC)c1 [Methyleugenol]
Details | concentration in plasma [ng/mL]
Rat [1], 1.5 h | 605
Rat [1], 12 h | 7.52
Rat [2], 0.5 h | 1440
Rat [2], 1.5 h | 509
Rat [3], 1 h | 543
Rat [3], 8 h | 571
Rat [4], 0.5 h | 2080
Rat [4], 1.5 h | 678
Rat [6], 1 h | 1640
Rat [6], 2 h | 501
Rat [8], 5 min | 424
Rat [8], 6 h | 704
Rat [9], 5 h | 114
Rat [9], 5 min | 126
Rat [10], 0.25 h | 2480
Rat [10], 4 h | 1730
Rat [12], 6 h | 384
Rat [12], 10 min | 2710
Rat [13], 0.25 h | 3570
Rat [13], 4 h | 454
Rat [14], 0.5 h | 1480
Rat [14], 1.5 h | 318
Rat [15], 0.5 h | 1180
Rat [15], 3 h | 812
Rat [16], 5 min | 16400
Rat [16], 6 h | 63
Rat [17], 0.5 h | 270
Rat [17], 5 h | 182
Rat [19], 0.5 h | 1850
Rat [19], 1.5 h | 488
Rat [20], 2 min | 310
Rat [20], 6 h | 117
Rat [21], 3 h | 1100
Rat [21], 5 min | 3500
Rat [22], 4 h | 79.2
Rat [22], 20 min | 426
Rat [23], 1 h | 2790
Rat [23], 2 h | 945

Details | concentration in plasma [ng/mL]
Rat [5] | 469
Rat [7] | 603
Rat [11] | 687
Rat [18] | 69.4
